# Laboratory results: the supplement of paper PMC3334620
# The full ranking holds about 33,000 sequences; the median of “E-score (-0.5 to 0.5)” is about -0.035, and the highest 2% start at about 0.35. Some of the results follow.
# Molecular target: T1, Pdr3 (UniProt P33200)
# T1 sequence: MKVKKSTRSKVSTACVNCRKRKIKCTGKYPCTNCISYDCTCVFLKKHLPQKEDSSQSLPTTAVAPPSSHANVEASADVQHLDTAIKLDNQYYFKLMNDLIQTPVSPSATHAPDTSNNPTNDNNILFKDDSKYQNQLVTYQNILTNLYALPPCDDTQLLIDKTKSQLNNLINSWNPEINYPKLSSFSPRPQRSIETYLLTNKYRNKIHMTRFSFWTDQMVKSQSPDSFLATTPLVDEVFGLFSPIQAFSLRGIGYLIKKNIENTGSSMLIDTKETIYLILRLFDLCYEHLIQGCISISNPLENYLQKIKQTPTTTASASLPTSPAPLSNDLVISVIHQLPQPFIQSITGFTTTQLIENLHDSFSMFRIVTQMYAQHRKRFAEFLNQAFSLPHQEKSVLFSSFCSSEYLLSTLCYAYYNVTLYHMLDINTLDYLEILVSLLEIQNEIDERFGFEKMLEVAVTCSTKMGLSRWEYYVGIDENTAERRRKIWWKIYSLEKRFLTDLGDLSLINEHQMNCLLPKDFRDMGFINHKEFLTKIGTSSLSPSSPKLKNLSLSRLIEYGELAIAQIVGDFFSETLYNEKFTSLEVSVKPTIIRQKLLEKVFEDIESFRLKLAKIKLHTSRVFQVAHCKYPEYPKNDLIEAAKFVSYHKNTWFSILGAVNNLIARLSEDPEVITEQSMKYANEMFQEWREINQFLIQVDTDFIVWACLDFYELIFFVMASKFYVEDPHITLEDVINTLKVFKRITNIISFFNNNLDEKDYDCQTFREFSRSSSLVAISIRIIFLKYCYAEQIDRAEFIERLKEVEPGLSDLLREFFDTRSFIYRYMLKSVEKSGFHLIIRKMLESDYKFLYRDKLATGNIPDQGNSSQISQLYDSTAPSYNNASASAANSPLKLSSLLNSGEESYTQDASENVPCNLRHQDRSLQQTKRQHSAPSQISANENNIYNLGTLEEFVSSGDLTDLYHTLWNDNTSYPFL
# Assay: PBM E-score (8-mer binding enrichment) (E-score (-0.5 to 0.5)); higher = stronger / more preferred TF binding; most listed sequences are background and not binding sites
# Conditions: protein concentration: 200 nM; construct: GST-full length
# Procedure: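 Universal 'all 10-mer' protein binding microarrays (Agilent AMADID 015681) probed with GST-tagged S. cerevisiae TFs (full-length or DBD) made by in vitro transcription/translation (PURExpress), about 100-200 nM. Bound TF was detected with fluorescent anti-GST. Each ungapped 8-mer (which stands for itself and its reverse complement) is scored by the PBM enrichment score (E-score), a modified Wilcoxon-Mann-Whitney statistic from -0.5 to +0.5, computed with the Universal PBM Analysis Suite. Scale: above 0.35 generally sequence-specific binding.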
row,Sequence,PBM E-score
1,CTTTAAAG,-0.362
2,CATGTCAG,-0.16
3,CCCGTACG,0.066
4,ACGACTGG,-0.101
5,CCTGCCTC,-0.121
6,CCTTCAAC,-0.206
7,CGGGGCAA,0.204
8,ACACGAAC,0.109
9,CGTTTCAC,0.0269
10,CACTAACA,-0.106
11,ATCGTCAT,-0.073
12,CGATAACA,0.0907
13,CAACACTG,-0.19
14,CGCTACCC,-0.0503
15,AAACTGCC,0.00197
16,CGTTCAGA,-0.135
17,AGTACAAA,-0.0913
18,CGGCGATA,0.258
19,AACACGAG,-0.0542
20,CCGCAGAG,-0.0664
21,ACTGATAT,0.0306
22,AGCTAACC,-0.0479

row,Sequence,PBM E-score
1,ACACAAAT,0.058
2,AAGCATGG,-0.0696
3,ATGATGCA,-0.103
4,ATTGCATA,0.137
5,AAGTATCA,0.0363
6,ATCGTTGG,-0.14
7,AAGATTAC,-0.0126
8,ACCTGAGG,-0.127
9,GCGATAGA,-0.171
10,GATCGGAC,0.362
11,ATATGCAC,0.0159
12,AGGTGGTC,-0.145
13,GTTACCCA,-0.159
14,ACATGTAG,0.0291
15,GCCTGGAA,-0.0452
16,ATATAGCA,-0.144
17,ACACGCGG,0.134
18,GCTACACC,-0.23
19,CAAACCAA,0.0107
20,AGAATCGC,0.0563
21,CACTATGC,-0.0327
22,GTCGTACA,-0.091

row,Sequence,PBM E-score
1,ATGCGGAA,0.416
2,CCACACGG,0.0795
3,AACACTAC,-0.133
4,CGGCACAG,0.218
5,GAGATTTA,-0.00055
6,GGATTGAC,-0.0159
7,CCGCGAAA,0.196
8,AGCCGTGC,-0.00554
9,ACTTAATA,-0.0398
10,CAAAGCTA,-0.0816
11,ACGCCAAA,-0.178
12,CCCGTCAC,0.123
13,ATCGATGC,0.0656
14,AGAAGCCA,-0.139
15,ATGAGGAG,-0.166
16,GTCCAGGA,-0.21
17,GCATTTCC,0.189
18,TTCACCAA,-0.145
19,AGTATCAC,-0.0714
20,GATCTTCC,0.191
21,AATCACGG,0.271
22,GACGATAA,-0.102

row,Sequence,PBM E-score
1,CCGACTAG,0.0372
2,AAATTTAT,0.0509
3,CTTAATGA,-0.195
4,AGCGGCAT,0.196
5,ATGGTTAC,-0.15
6,CGCCACCA,-0.173
7,GCGTAACC,-0.174
8,CATATAGC,0.0552
9,TATAACGA,0.0373
10,ATCGGCTA,0.0766
11,CCCACCTA,-0.174
12,ACGAGTGC,-0.081
13,ACTAAACC,-0.0497
14,CCGTTGAA,0.0461
15,CAGAATCC,0.0321
16,GAGTGACC,-0.174
17,GGCAATTA,-0.0251
18,AAGGGCAG,-0.043
19,ACAGTAAA,-0.0539
20,GGATTGGA,0.056
